Reference: the supplement of paper PMC10724272

Each test system was assayed with CCC(C)n1ncn(-c2ccc(N3CCN(c4ccc(OCC5COC(Cn6cncn6)(c6ccc(Cl)cc6Cl)O5)cc4)CC3)cc2)c1=O [itraconazole] (assay: CLSI broth microdilution.).

Test System	MIC
Candida tropicalis isolate 69 (ERG11 copies: 2, Erg11p: no key change)	0.12 mg/L [S]
Candida tropicalis isolate 168 (ERG11 copies: 2, Erg11p: no key change)	0.12 mg/L [S]
Candida tropicalis isolate 388 (ERG11 copies: 2, Erg11p: no key change)	0.5 mg/L [S]
Candida tropicalis isolate 67 (ERG11 copies: 2, Erg11p: no key change)	0.12 mg/L [S]
Candida tropicalis isolate 265 (ERG11 copies: 13, Erg11p: Y132F, S154F (homozygous))	2 mg/L [R]
Candida tropicalis isolate 377 (ERG11 copies: 8, Erg11p: Y132F, S154F (heterozygous))	0.25 mg/L [S]
Candida tropicalis isolate 330 (ERG11 copies: 7, Erg11p: Y132F, S154F (heterozygous))	0.5 mg/L [S]
Candida tropicalis isolate 175 (ERG11 copies: 2, Erg11p: Y257H (homozygous))	0.25 mg/L [S]
Candida tropicalis isolate 312 (ERG11 copies: 2, Erg11p: Y132F, S154F (homozygous))	0.5 mg/L [S]
Candida tropicalis isolate 281 (ERG11 copies: 2, Erg11p: no key change)	0.25 mg/L [S]
Candida tropicalis isolate 274 (ERG11 copies: 2, Erg11p: no key change)	0.25 mg/L [S]
Candida tropicalis isolate 347 (ERG11 copies: 2, Erg11p: no key change)	0.25 mg/L [S]
Candida tropicalis isolate 258 (ERG11 copies: 2, Erg11p: no key change)	0.5 mg/L [S]
Candida tropicalis isolate 344 (ERG11 copies: 2, Erg11p: no key change)	0.12 mg/L [S]
Candida tropicalis isolate 319 (ERG11 copies: 2, Erg11p: no key change)	0.25 mg/L [S]
Candida tropicalis isolate 422 (ERG11 copies: 2, Erg11p: no key change)	0.25 mg/L [S]
Candida tropicalis isolate 57 (ERG11 copies: 2, Erg11p: no key change)	0.25 mg/L [S]
Candida tropicalis isolate 222 (ERG11 copies: 5, Erg11p: Y132F, S154F, P397S (heterozygous))	1 mg/L [R]
Candida tropicalis isolate 370 (ERG11 copies: 2, Erg11p: no key change)	0.12 mg/L [S]
Candida tropicalis isolate 283 (ERG11 copies: 2, Erg11p: no key change)	0.12 mg/L [S]
Candida tropicalis isolate 43 (ERG11 copies: 10, Erg11p: Y132F, S154F (homozygous))	0.25 mg/L [S]
Candida tropicalis isolate 351 (ERG11 copies: 2, Erg11p: no key change)	0.25 mg/L [S]

Each test system was assayed with CCCCCOc1ccc(-c2cc(-c3ccc(C(=O)N[C@H]4C[C@@H](O)[C@@H](O)NC(=O)[C@@H]5[C@@H](O)[C@@H](C)CN5C(=O)[C@H]([C@H](O)CC(N)=O)NC(=O)[C@H]([C@H](O)[C@@H](O)c5ccc(O)c(OS(=O)(=O)O)c5)NC(=O)[C@@H]5C[C@@H](O)CN5C(=O)[C@H]([C@@H](C)O)NC4=O)cc3)no2)cc1 [micafungin] (assay: CLSI broth microdilution.).

Test System	MIC
Candida tropicalis isolate 69 (ERG11 copies: 2, Erg11p: no key change)	0.03 mg/L [S]
Candida tropicalis isolate 168 (ERG11 copies: 2, Erg11p: no key change)	0.06 mg/L [S]
Candida tropicalis isolate 388 (ERG11 copies: 2, Erg11p: no key change)	0.03 mg/L [S]
Candida tropicalis isolate 67 (ERG11 copies: 2, Erg11p: no key change)	0.06 mg/L [S]
Candida tropicalis isolate 265 (ERG11 copies: 13, Erg11p: Y132F, S154F (homozygous))	0.03 mg/L [S]
Candida tropicalis isolate 377 (ERG11 copies: 8, Erg11p: Y132F, S154F (heterozygous))	0.03 mg/L [S]
Candida tropicalis isolate 330 (ERG11 copies: 7, Erg11p: Y132F, S154F (heterozygous))	0.03 mg/L [S]
Candida tropicalis isolate 175 (ERG11 copies: 2, Erg11p: Y257H (homozygous))	0.015 mg/L [S]
Candida tropicalis isolate 312 (ERG11 copies: 2, Erg11p: Y132F, S154F (homozygous))	0.03 mg/L [S]
Candida tropicalis isolate 281 (ERG11 copies: 2, Erg11p: no key change)	0.03 mg/L [S]
Candida tropicalis isolate 274 (ERG11 copies: 2, Erg11p: no key change)	0.06 mg/L [S]
Candida tropicalis isolate 347 (ERG11 copies: 2, Erg11p: no key change)	0.03 mg/L [S]
Candida tropicalis isolate 258 (ERG11 copies: 2, Erg11p: no key change)	0.03 mg/L [S]
Candida tropicalis isolate 344 (ERG11 copies: 2, Erg11p: no key change)	0.03 mg/L [S]
Candida tropicalis isolate 319 (ERG11 copies: 2, Erg11p: no key change)	0.06 mg/L [S]
Candida tropicalis isolate 422 (ERG11 copies: 2, Erg11p: no key change)	0.015 mg/L [S]
Candida tropicalis isolate 57 (ERG11 copies: 2, Erg11p: no key change)	0.03 mg/L [S]
Candida tropicalis isolate 222 (ERG11 copies: 5, Erg11p: Y132F, S154F, P397S (heterozygous))	0.03 mg/L [S]
Candida tropicalis isolate 370 (ERG11 copies: 2, Erg11p: no key change)	0.03 mg/L [S]
Candida tropicalis isolate 283 (ERG11 copies: 2, Erg11p: no key change)	0.03 mg/L [S]
Candida tropicalis isolate 43 (ERG11 copies: 10, Erg11p: Y132F, S154F (homozygous))	0.03 mg/L [S]
Candida tropicalis isolate 351 (ERG11 copies: 2, Erg11p: no key change)	0.06 mg/L [S]

These test systems were tested with CCCCCOc1ccc(-c2ccc(-c3ccc(C(=O)N[C@H]4C[C@@H](O)[C@@H](O)NC(=O)[C@@H]5[C@@H](O)[C@@H](C)CN5C(=O)[C@H]([C@@H](C)O)NC(=O)[C@H]([C@H](O)[C@@H](O)c5ccc(O)cc5)NC(=O)[C@@H]5C[C@@H](O)CN5C(=O)[C@H]([C@@H](C)O)NC4=O)cc3)cc2)cc1 [anidulafungin] (assay: CLSI broth microdilution.).

Test System	MIC
Candida tropicalis isolate 69 (ERG11 copies: 2, Erg11p: no key change)	0.03 mg/L [S]
Candida tropicalis isolate 168 (ERG11 copies: 2, Erg11p: no key change)	0.25 mg/L [S]
Candida tropicalis isolate 388 (ERG11 copies: 2, Erg11p: no key change)	0.06 mg/L [S]
Candida tropicalis isolate 67 (ERG11 copies: 2, Erg11p: no key change)	0.12 mg/L [S]
Candida tropicalis isolate 265 (ERG11 copies: 13, Erg11p: Y132F, S154F (homozygous))	≤ 0.015 mg/L [S]

MIC of invasive clinical C. tropicalis isolates, CLSI broth microdilution (fluconazole 0.12-256 mg/L, up to 1,024 for the azole-resistant cluster and its neighbour group; other ranges not stated); higher = less susceptible. Call: susceptible or wild type [S] / resistant or non-wild type [R] by CLSI breakpoints or cut-offs; intermediate and dose-dependent carry no call. '<=' and '>=' at the end values are inferred; the source marks only some of them. Isolates are numbered anew.
